Structures are written as SMILES. The list shows a part of the results. These are further read-outs of the screen, such as a control signal, another cell line or another target. No call is given for them.

Assay in all cases: Primary Screen for Target Class Profiling of Small Molecule Inhibitors of Methyltransferases
Experiment [1] addresses Guanidinoacetate N-methyltransferase (Homo sapiens) (UniProt Q14353). The settings on record: purified enzyme, MTase-Glo SAH luminescence; measured here: GAMT inhibition; at 40 µM; stronger effect = lower value. The essentials: (§1)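 Each enzyme was assayed with SAM and its substrate. SAH formation detected by MTase-Glo luminescence; single-point 40 uM screen[…].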
The target of experiment [2] is Nicotinamide N-methyltransferase (Homo sapiens) (UniProt P40261). The conditions noted are these: purified enzyme, MTase-Glo SAH luminescence; measured here: NNMT inhibition; at 40 µM; stronger effect = lower value. The essentials: as §1
Experiment [3] has as its target Phenylethanolamine N-methyltransferase (Homo sapiens) (UniProt P11086). The conditions noted are these: purified enzyme, MTase-Glo SAH luminescence; measured here: PNMT inhibition; at 40 µM; stronger effect = lower value. The gist of the method:
as §1

For experiment [4], the target named is Glycine N-methyltransferase (Homo sapiens) (UniProt Q14749). The conditions noted are these: purified enzyme, MTase-Glo SAH luminescence; measured here: GNMT inhibition; at 40 µM; stronger effect = lower value. The essentials:
as §1

The target in experiment [5] is Histamine N-methyltransferase (Homo sapiens) (UniProt P50135). The conditions noted are these: purified enzyme, MTase-Glo SAH luminescence; measured here: HNMT inhibition; at 40 µM; stronger effect = lower value. The gist of the method:
as §1
% is set by controls: 0 for no effect and ±100 for the full control effect.

On to `CNC(=O)c1ccccc1Oc1nc(Nc2cc(OC)c(OC)c(OC)c2)ncc1Br`, for which the activity change, negative = inhibition in experiment [1] is -17%; in experiment [2] it was -22.1%; in experiment [3] it was -6.66%.

Turning to `Cn1cccc1C(=O)N1CC[C@H](NC(=O)Nc2ccc(F)cc2F)[C@H]1C(=O)N[C@H](Cc1ccccc1)C(N)=O`, the activity change, negative = inhibition in experiment [4] is -4.47%; in experiment [1], -3.65%; in experiment [5] it was -0.614%; in experiment [2], -7.03%; in experiment [3], -3.46%.

In the case of `O=C(O)CC/C=C\C[C@H]1CO[C@@H](c2ccccc2Cl)O[C@H]1c1ccccc1O`, the activity change, negative = inhibition in experiment [4] was -14.7%; in experiment [1], -12.6%; in experiment [5] it was 2.86%; in experiment [2] it was -21.5%; in experiment [3], -1.59%.

Consider `O=C1N(Cc2ccccc2F)CCOC12CCN(Cc1ccc(F)cc1F)CC2`, for which the activity change, negative = inhibition was -5.92% in experiment [4]; -0.445% in experiment [1]; -8.42% in experiment [5]; -17.1% in experiment [2]; -10% in experiment [3].

As to `Cc1ccc(CCNC(=O)Cn2ccc3cc(S(=O)(=O)N4CCC(C)CC4)ccc32)cc1`, the activity change, negative = inhibition worked out at 6.45% in experiment [4]; 5.78% in experiment [1]; 6.92% in experiment [5]; 2.86% in experiment [2]; 1.9% in experiment [3].

As for `O=C(O)CCc1cc2n(n1)CCCN(C(=O)c1cc3c([nH]c1=O)CCC3)C2`, the activity change, negative = inhibition in experiment [4] is -2.53%; in experiment [1], -10.6%; in experiment [5] it was -4.23%; in experiment [2] it was -12.3%; in experiment [3], -13.1%.

`O=c1[nH]cc(F)c(=O)[nH]1`: the activity change, negative = inhibition in experiment [4] was -1.86%; in experiment [1] it was 5.73%; in experiment [5], -1.83%; in experiment [2], -2.3%; in experiment [3], 4.96%.

`COCCNC(=O)c1ccc2c(c1)N(C)C(CC(=O)NCC(C)C)CO2` (stereo not drawn): the activity change, negative = inhibition is -0.748% in experiment [4]; 0.223% in experiment [1]; 2.41% in experiment [5]; -0.452% in experiment [2]; 4.25% in experiment [3].

Turning to `CCc1ccccc1NC(=O)c1cc2c(N3CCSCC3)nc(C)cn2n1`, the activity change, negative = inhibition is -2.55% in experiment [4]; 0.539% in experiment [1]; -10.5% in experiment [5]; -4.1% in experiment [2]; 5.78% in experiment [3].

As to `COC(=O)c1cc2n(n1)CC(C)(C(=O)NC1CCCCC1)N(c1ccc(OC)cc1)C2=O` (stereo not drawn), the activity change, negative = inhibition in experiment [4] stood at 6.42%; in experiment [1] it was 0%; in experiment [5] it was 9.23%; in experiment [2], 3.2%; in experiment [3], 8.09%.

Consider `Cc1ccn(-c2cc(Cl)ccc2[C@@H](Oc2cc(-c3ccc(C[C@H](N)C(=O)O)cc3)nc(N)n2)C(F)(F)F)n1`, for which the activity change, negative = inhibition in experiment [4] was -84%; in experiment [1], -12.2%; in experiment [5], 6.63%; in experiment [2], -43.5%; in experiment [3] it was -0.505%.

On to `CC1C2=CC(=O)OC2(O)CC2C1CCC1C(C)(C)CCC(O)C21C` (stereo not drawn), for which the activity change, negative = inhibition in experiment [4] is -6.18%; in experiment [1], -5.92%; in experiment [5], 7.29%; in experiment [2] it was -21.9%; in experiment [3] it was -13.7%.

Regarding `O=C(Nc1ccccc1C(F)(F)F)N1CCCC(Cn2cnc3cccnc32)C1` (stereo not drawn), the activity change, negative = inhibition was 0.722% in experiment [4]; -1.18% in experiment [1]; 3.31% in experiment [5]; -4.32% in experiment [2]; -14.5% in experiment [3].

With `O=C1OC2(CCN(C(=O)c3ccco3)CC2)CN1CCOc1ccccc1`, the activity change, negative = inhibition in experiment [4] is -3.64%; in experiment [1] it was -7.13%; in experiment [5], -2.08%; in experiment [2], -7.7%; in experiment [3] it was -4.09%.

Turning to `COc1cc(N(C)CCN(C)C)c(N)cc1Nc1nccc(-c2cn(C)c3ccccc23)n1`, the activity change, negative = inhibition was 1.16% in experiment [4]; 4.26% in experiment [1]; -34.1% in experiment [5]; -13.1% in experiment [2]; -5.65% in experiment [3].

As to `Cc1sc2c(c1C)C(c1ccc(Cl)cc1)=N[C@H](CC(=O)NCCCCNC(=O)COc1cccc3c1C(=O)N([C@H]1CCC(=O)NC1=O)C3=O)c1nnc(C)n1-2`, the activity change, negative = inhibition in experiment [4] was 0.357%; in experiment [1], 14%; in experiment [5], 1.89%; in experiment [2], -69.2%; in experiment [3], 2.7%.

As for `COc1cccc(-c2cccc(C(=O)N3CCN([S+](=O)([O-])c4ccc(C)cc4)CC3)c2)c1`, the activity change, negative = inhibition was -6.28% in experiment [4]; -6.71% in experiment [1]; -4.85% in experiment [5]; -10.8% in experiment [2]; -4.84% in experiment [3].

As to `COc1ccccc1NS(=O)(=O)c1ccc2c(c1)n(C)c(=O)n2C`, the activity change, negative = inhibition in experiment [4] was 0.456%; in experiment [1], 7.13%; in experiment [5] it was 6.21%; in experiment [2], 7.51%; in experiment [3] it was -1.63%.

As to `O=C(CCCc1nnc2n3nc(-c4ccccc4)nc3c3ccccc3n12)NCCc1ccccc1`, the activity change, negative = inhibition in experiment [4] was 0.026%; in experiment [1] it was 4.72%; in experiment [5], 5.12%; in experiment [2], 5.34%; in experiment [3], -0.174%.

`CN(C)c1nc(NC2CCC(NCCc3ccc(Br)cc3OC(F)(F)F)CC2)nc2ccccc12` (stereo not drawn): the activity change, negative = inhibition in experiment [4] was -17%; in experiment [1] it was 8.37%; in experiment [5], -84.8%; in experiment [2], -94.5%; in experiment [3], -36.1%.

With `COc1ccc(NC(=O)CSc2nnc3n(Cc4ccc(C)cc4)c(=O)c4ccccc4n23)cc1`, the activity change, negative = inhibition in experiment [4] was -0.49%; in experiment [1] it was 0%; in experiment [5] it was 9.04%; in experiment [2], 3.7%; in experiment [3], 5.91%.

For the molecule `COc1ccc(-c2cc3n(n2)CC(C)(C(=O)NCc2ccccc2OC)N(c2ccc4c(c2)OCO4)C3=O)cc1` (stereo not drawn), the activity change, negative = inhibition in experiment [4] was 3.36%; in experiment [1], 0.909%; in experiment [5] it was 2.36%; in experiment [2], -4.19%; in experiment [3], -3.69%.

With `CN1C[C@H](NCc2nccs2)CCC[C@@H](C(=O)NC2CCOCC2)CC1=O`, the activity change, negative = inhibition in experiment [4] is 2.97%; in experiment [1], 1.51%; in experiment [5] it was 2.77%; in experiment [2] it was -0.025%; in experiment [3], 2.09%.

In the case of `Cc1cc(-c2cc(C(=O)NCc3c(C)cc(C)[nH]c3=O)c3c(c2)ncn3C)ccn1`, the activity change, negative = inhibition in experiment [4] was -9.25%; in experiment [1], -3.58%; in experiment [5] it was -13.5%; in experiment [2] it was -14.8%; in experiment [3], -2.92%.

Consider `Cc1ccccc1CNC(=O)Cn1ccc2cc(S(=O)(=O)N3CCCCC3)ccc21`, for which the activity change, negative = inhibition is 0.894% in experiment [4]; -0.665% in experiment [1]; 4.59% in experiment [5]; -2.33% in experiment [2]; 0.277% in experiment [3].

On to `O=C(/C=C/c1ccc(O)cc1)OC[C@H]1O[C@@H](OC(=O)/C=C/c2ccccc2)[C@H](O)[C@@H](O)[C@@H]1O`, for which the activity change, negative = inhibition in experiment [4] is 4.54%; in experiment [1], 3.27%; in experiment [5] it was 4.52%; in experiment [2], -8.97%; in experiment [3] it was 4.13%.

As to `CCCCCCCC/C=C\CCCCCCCC(=O)NCc1ccc(O)c(OC)c1`, the activity change, negative = inhibition in experiment [4] is -1.91%; in experiment [1], 13.8%; in experiment [5], 9.38%; in experiment [2], -6.88%; in experiment [3], 4.98%.

As to `CCOc1ccc(C2c3cccn3-c3sc4c(c3CN2C(=O)Nc2ccc(C)cc2)CCCC4)cc1` (stereo not drawn), the activity change, negative = inhibition in experiment [4] is 2.68%; in experiment [1] it was 0.284%; in experiment [5], 6.18%; in experiment [2], -2.73%; in experiment [3], 6.41%.

With `CC(C)NCC1(COc2ccccc2)C[C@@H](O)[C@@H](O)C1` (stereo partly drawn), the activity change, negative = inhibition is -0.507% in experiment [4]; -5.38% in experiment [1]; -8.04% in experiment [5]; -3.98% in experiment [2]; 9.09% in experiment [3].

The record behind these values is PubChem BioAssay AID1745853 (National Center for Advancing Translational Sciences (NCATS), 2022).
